# Results from PubChem BioAssay AID2147 (National Center for Advancing Translational Sciences (NCATS), 2009).
# Screen size: about 230,000 compounds; about 3,600 (1.6%) were called active. Inconclusive results, whose numbers are uncertain, are shown with a selection of clear calls. Calls follow the shape of the dose curve; as a rule, active = well fitted inhibition curve with a large enough effect (not every such curve was filed as active); inconclusive = small, poorly fitted or top-dose-only effect, or another doubt; inactive = no such curve, though single readings can be large or run the other way. Potencies of inconclusive entries are doubtful fits and often do not repeat.
# Target: Lysine-specific demethylase 4E (Homo sapiens) (UniProt B2RXH2)
# Test: qHTS Assay for Inhibitors of Human Jumonji Domain Containing 2E (JMJD2E)
# Conditions: JMJD2E catalytic domain, FDH-coupled NADH fluorescence (FDH is formaldehyde dehydrogenase); series mostly up to 57.1 µM; activity change, negative = inhibition: at the top concentration
# Also: nearly all actives have a fitted effect of over 50% in size.
# 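For activity change, negative = inhibition in this document: 0% = wells with enzyme and -100% = buffer wells without enzyme.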
# Potency is read from the fitted curve at half-maximal effect; tags tell the direction and shape of the fitted curve.
# UniProt B2RXH2, sequence (B2RXH2 whole entry, looked up, the tested form may be a part): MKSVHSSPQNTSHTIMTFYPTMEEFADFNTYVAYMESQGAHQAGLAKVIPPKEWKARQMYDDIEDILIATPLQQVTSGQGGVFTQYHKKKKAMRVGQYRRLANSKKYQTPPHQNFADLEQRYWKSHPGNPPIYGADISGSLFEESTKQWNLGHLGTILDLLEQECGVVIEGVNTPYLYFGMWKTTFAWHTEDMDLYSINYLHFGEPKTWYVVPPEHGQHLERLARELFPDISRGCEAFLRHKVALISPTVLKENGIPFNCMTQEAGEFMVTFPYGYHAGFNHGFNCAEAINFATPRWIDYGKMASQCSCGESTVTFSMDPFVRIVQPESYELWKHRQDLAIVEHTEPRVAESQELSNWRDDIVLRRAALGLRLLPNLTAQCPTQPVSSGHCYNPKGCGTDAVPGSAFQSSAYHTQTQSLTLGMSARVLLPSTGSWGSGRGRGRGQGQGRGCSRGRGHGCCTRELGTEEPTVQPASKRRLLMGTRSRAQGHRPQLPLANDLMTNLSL
Structure (SMILES),Potency,"activity change, negative = inhibition"
CCc1c(C)n2nc(C)cc2[nH]c1=O,"inconclusive: 28.2 µM [inhibitor, partial curve]",–
CCOC(=O)COc1ccccc1/C=C\[N+](=O)[O-],–,inactive: 0.185%
O=C(COC(=O)c1ccc(S(=O)(=O)Nc2ccccc2)cc1)NCC1CCCO1 (stereo not given),–,inactive: 3.36%
CCCn1c(SCC(=O)Nc2nonc2C)nnc1-c1ccoc1C,–,inactive: 4.18%
CCCC(=O)Nc1ccc(Cc2ccc(NC(=O)CCC)c(C(=O)O)c2)cc1C(=O)O,"inconclusive: 28.2 µM [inhibitor, single point]",–
CC1=C(C(=O)Nc2ccccc2F)C(c2ccsc2)C2=C(CC(c3ccccc3)CC2=O)N1 (stereo not given),"inconclusive: 35.5 µM [inhibitor, partial curve]",–
O=C(CSc1nnc2ccccn12)NCCc1ccc(Cl)cc1,"inconclusive: 35.5 µM [inhibitor, single point]",–
CC(=O)Nc1cccc(-c2csc(Nc3ccccn3)n2)c1,–,inactive: -3.58%
O=C(NNC(=S)NC(=O)c1ccccc1[N+](=O)[O-])c1ccccc1O,"inconclusive: 28.2 µM [inhibitor, single point]",–
Cc1sc(NC(=O)c2ccccc2)c(C#N)c1-c1ccccc1,"inconclusive: 35.5 µM [inhibitor, single point]",–
COc1cc(NC(=S)Nc2ccc(Br)cc2Cl)c(OC)cc1Cl,–,inactive: -8.86%
Cc1ccc(S(=O)(=O)N2CCOCC2)cc1NC(=O)COC(=O)c1cc(=O)c2ccccc2o1,–,inactive: -18.6%
C(=N\Nc1nc(-c2ccccn2)nc2ccccc12)/c1ccccc1,active: 8.91 µM,–
CC(C)OCCCNC(=O)CN1C(=O)/C(=C/c2ccccc2)Sc2ccccc21,"inconclusive: 35.5 µM [inhibitor, single point]",–
COc1ccc(/C=N/n2cnnc2SCCO)cc1OC,"inconclusive: 28.2 µM [inhibitor, single point]",–
CCN(CC)S(=O)(=O)c1ccc(C(=O)NC(=S)N(CCC#N)Cc2cccnc2)cc1,–,inactive: -5.71%
CCc1nccn1C(=O)c1cnn2c(C(F)F)cc(-c3ccc(C)cc3)nc12,"inconclusive: 28.2 µM [inhibitor, partial curve]",–
O=C1/C(=C/N(C(=O)c2ccco2)c2ccc(Br)cc2)Sc2ccccc21,"inconclusive: 39.8 µM [inhibitor, single point]",–
COc1ccc(N(C(=O)CSCC(=O)Nc2cc(C)on2)C(C(=O)NC2CCCCC2)c2ccc(O)c(O)c2)cc1 (stereo not given),active: 11.2 µM,–
CC(C)(C)C(=O)[C@@H]1[C@@H]2C(=O)N(Cc3ccccc3)C(=O)[C@@H]2[C@H]2c3ccccc3C=CN12,–,inactive: -26%
